Over roughly 33,000 sequences, “E-score (-0.5 to 0.5)” has its median near -0.021; the highest 2% begin near 0.32. This is one part of the list.
target: T1, Zap1 (UniProt P47043); experiment: PBM E-score (8-mer binding enrichment) (E-score (-0.5 to 0.5)); higher = stronger / more preferred TF binding; most listed sequences are background and not binding sites; conditions: protein concentration: 200 nM; construct: GST-full length
T1 sequence: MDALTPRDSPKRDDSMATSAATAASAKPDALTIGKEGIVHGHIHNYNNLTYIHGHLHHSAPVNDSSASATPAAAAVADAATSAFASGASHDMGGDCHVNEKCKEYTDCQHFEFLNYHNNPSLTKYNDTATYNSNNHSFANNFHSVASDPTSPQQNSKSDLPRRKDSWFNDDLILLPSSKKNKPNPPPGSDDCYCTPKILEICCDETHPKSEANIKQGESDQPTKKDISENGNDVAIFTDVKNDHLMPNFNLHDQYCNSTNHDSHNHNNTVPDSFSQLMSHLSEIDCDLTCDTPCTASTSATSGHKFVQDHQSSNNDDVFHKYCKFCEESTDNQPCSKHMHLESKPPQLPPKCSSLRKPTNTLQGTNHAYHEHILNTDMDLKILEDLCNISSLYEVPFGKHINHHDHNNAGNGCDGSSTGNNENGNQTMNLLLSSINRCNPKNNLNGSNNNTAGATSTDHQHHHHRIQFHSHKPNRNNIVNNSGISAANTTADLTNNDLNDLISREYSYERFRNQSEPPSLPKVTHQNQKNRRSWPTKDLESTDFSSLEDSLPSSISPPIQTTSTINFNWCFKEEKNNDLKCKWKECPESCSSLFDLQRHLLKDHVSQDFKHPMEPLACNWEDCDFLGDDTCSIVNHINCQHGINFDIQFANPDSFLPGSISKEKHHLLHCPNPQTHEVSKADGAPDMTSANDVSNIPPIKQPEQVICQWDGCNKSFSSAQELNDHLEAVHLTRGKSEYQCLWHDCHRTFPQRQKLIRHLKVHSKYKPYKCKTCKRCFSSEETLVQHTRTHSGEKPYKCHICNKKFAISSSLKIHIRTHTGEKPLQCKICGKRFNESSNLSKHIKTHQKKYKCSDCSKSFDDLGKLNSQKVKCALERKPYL
Procedure: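 Universal 'all 10-mer' protein binding microarrays (Agilent AMADID 015681) probed with GST-tagged S. cerevisiae TFs (full-length or DBD) made by in vitro transcription/translation (PURExpress), about 100-200 nM. Bound TF was detected with fluorescent anti-GST. Each ungapped 8-mer (which stands for itself and its reverse complement) is scored by the PBM enrichment score (E-score), a modified Wilcoxon-Mann-Whitney statistic from -0.5 to +0.5, computed with the Universal PBM Analysis Suite. Scale: above 0.35 generally sequence-specific binding.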

Sequence | PBM E-score
ACAATCCG | 0.0979
GGTAAAAC | 0.113
CTGAGCGA | -0.0845
AGGGCGCA | -0.202
GAGGCCTA | -0.1
ATGGAGGA | -0.26
CAGGGTCA | 0.417
CACGTATC | -0.218
CAAGGTGG | 0.131
CACAACGA | 0.0452
CGCTGCCC | -0.162
CCTTGTGA | 0.193
CGGTTTCA | 0.03
AGCTAAGG | -0.17
ACCACCAC | 0.294
AGAAATTC | -0.0398
AAATCGCA | 0.0208
CAGTGCCG | -0.0624
GCAGATTA | -0.0315
AATTATTC | 0.133
CGGGGTAG | 0.205
AAAGCTTT | -0.06
ATAGTCTC | 0.103
ACAGCCCG | -0.172
AAAACAGT | 0.0314

Sequence | PBM E-score
ACTCAGAC | -0.0323
AGTACGGA | -0.0532
AGTCTGAA | -0.206
ACGCCTTG | -0.13
CTGATGGA | -0.254
AAAAGGCC | 0.115
AGAGAGAA | -0.157
CAATAAAA | 0.149
CCGGCTGC | -0.041
AATCTCTG | -0.1
AGAGGAAA | 0.12
CTGTAGAA | 0.0266
GAGTCAGA | -0.157
AACTCCGA | -0.0253
ACTAACAG | 0.155
AGTGTTAA | 0.107
CCAATTAA | 0.205
AAAAACGG | 0.196
CCGTTATA | 0.103
ACACAGAG | -0.144
AGGACAAT | -0.00527
ATGCATTA | 0.17
GATAGCAA | -0.0255
ACTGAGCC | -0.0274
ACAACGCG | -0.0352

Sequence | PBM E-score
GAGTGTAA | -0.139
GAGCTCGC | -0.0688
AGGGAACC | 0.159
CGATCCTA | -0.0994
CCAGTATC | -0.0933
AAGGAAAA | 0.0425
AAGGCGGC | -0.0887
AGGGCAAT | -0.156
ACATAGTA | 0.0554
AACTTAAT | 0.165
AACATATG | -0.117
CCAATCAA | 0.0678
AGGGTAAA | 0.235
CTATGCGA | -0.102
CCTTGAGA | 0.225
ACCAGATC | -0.0162
ATAATCAT | 0.255
CATGACCA | 0.284
CCCGTGCG | -0.00953
GGCTAGCA | -0.222
ATCGAACG | -0.183
AAATATGA | 0.153
ATGACGCC | -0.139
ACCTACCT | 0.167
ACATCTGC | -0.225

Sequence | PBM E-score
GGTGTCGA | 0.0564
CTGAGGAC | -0.143
GCGCAGTA | -0.104
TTGTTAAA | -0.04
AGAACAGG | -0.0908
CATAATCC | 0.00118
CTTGCCCC | -0.232
GAATGGGA | -0.0392
ATATCTTC | 0.0902
ACTACGTC | -0.142
GATCGTCC | 0.0556
CACGGTTC | -0.13
CCGAATTA | 0.142
AAGCACCC | 0.0716
AAGGTGAG | -0.12
AAGCCTCT | -0.3
AAGCTGCA | 0.00272
CAAATTGA | -0.0375
TACGAACA | 0.151
CAACCTCA | 0.0787
CGGAAGAA | -0.141
GCCCTTGA | 0.00462
CTACTGCC | -0.244
CCCGCAAC | 0.229
TAGATGAA | 0.046

Sequence | PBM E-score
ACGCTAGT | -0.124
CGGTGGCC | 0.104
CGGCAGGA | -0.219
GAGGCTAA | 0.12
AAAAACTG | 0.0294
GAGGTGCC | 0.0135
GGGAATGA | 0.0419
TACGACTA | 0.147
ATCTATTG | 0.0284
GCCACTTA | -0.108
AGACGCGG | 0.0943
CCCCACTA | -0.131
CAGCATAC | -0.143
GCACCAAC | -0.00297
GCGCGACA | 0.203
CAGAGCTC | -0.311
ACGGTTCA | -0.226
GAGTTACC | 0.3
ACGGGCTC | -0.377
GAACCGTC | -0.144
AGGCACAA | -0.0273
AGAGATCT | -0.274
GATGTTCA | 0.002
ACAAGTTG | -0.0793
GACGGTCC | -0.0199

Sequence | PBM E-score
CCGGAGCG | -0.218
AACAAACA | 0.204
AAATTTAG | 0.161
GCCAACGA | -0.0829
CAACGGGC | -0.196
CCTGCGTC | -0.217
CTGTTATA | 0.115
ACGACGAG | -0.194
AAGCTATT | -0.138
GATTGTAA | 0.054
AAACGGAG | -0.152
CAACTTAG | 0.0448
CTACGCCA | -0.285
CCGAAGTC | -0.0936
GCACACCC | 0.022
ACTACGCT | -0.189
TGCATCCA | -0.0336
TCAGGGCA | -0.001
TCTGTTAA | 0.0669
ATTAGAAC | 0.0615
ACATGAGA | 0.141
AAACCCCT | 0.188
AGCACGCA | -0.246
GGTAAGCA | 0.0587
ACGGGTTG | 0.158

Sequence | PBM E-score
ATGGGCGC | -0.206
AATCTGAG | -0.0252
CTTTAAAA | 0.00534
GAGTATAC | -0.126
GTGCCCAA | -0.0175
ACGGTCTG | 0.00115
CAATACGA | 0.113
GCCTTGCC | -0.236
CAGCTACA | -0.143
GACTAAGC | -0.096
GGGACAAC | 0.0321
ATTAAGTA | -0.0232
CGTTAATA | 0.11
CGGTTAGC | 0.151
TATGACAA | 0.11
CAATCAGG | 0.122
GCCGGCCC | -0.0753
CAAGCTTA | 0.0952
GACTGTCC | -0.206
GGGAAAAC | -0.241
ATTGCAAA | 0.167
ACCATTCG | 0.0351
CGTAAGTC | -0.0622
ATTTGTTG | 0.155
ACTAGTCT | -0.0426

Sequence | PBM E-score
AATGGAGA | -0.226
AGGCAAAG | -0.141
CGGTAGGA | -0.0778
GACCCTGC | 0.283
AGGGATAA | 0.0891
ATTCACGA | 0.0347
GCCGCCGA | -0.12
GCACCGGC | 0.0464
TACAAGTA | 0.0103
ATCCTACG | -0.187
CGTGCCGA | -0.241
AGGGCGTA | 0.00973
ATATCCAG | -0.0336
CCCACTTC | -0.107
ATCTACAT | -0.0783
GGGTACGA | 0.0331
ATAGGGAG | -0.26
ATAATCCA | 0.0492
AAACATAA | 0.171
CCGGTCGA | -0.18
TAAACATA | 0.159
AACCATGC | 0.156
AGTTAAAC | 0.0887
ACGGCCAG | -0.0756
AAAGTCAA | 0.0202

Sequence | PBM E-score
GGCCCAAC | 0.0448
CCGGAACA | -0.0587
ACCACATG | 0.0314
GCTCTGAC | -0.21
TAAATGAA | 0.0661
ACCCCGTC | -0.00633
ACTTAGGC | 0.067
CTGCCAAC | -0.202
AGGGTTTC | 0.232
GCTGTCAC | -0.137
CGGTTCCA | 0.132
GATCACAC | -0.0542
CCCGGAGG | 0.138
CACTCTAG | 0.0467
CTGAAAAA | 0.116
AGAACGGG | -0.147
ACAACGTA | -0.0475
ACACCGCC | 0.0544
CCTTATTC | -0.0613

— the supplement of paper PMC3334620
